Results reported in PMC7926352, “Synthesis, Characterization and In Vitro Evaluation of Novel 5-Ene-thiazolo[3,2-b][1,2,4]triazole-6(5H)-ones as Possible Anticancer Agents” (Molecules, 2021).

System: NCI-H322M
Experimental: The primary anticancer assay was performed on a panel of approximately sixty human tumor cell lines derived from nine neoplastic diseases (leukemia, melanoma, lung, colon, CNS, ovarian, renal, prostate, and breast cancers), in accordance with the protocol of the National Cancer Institute Drug Evaluation Branch (Bethesda, MD, USA). Tested compounds were added to the culture at a single concentration (10^−5 M) and the cultures were incubated for 48 h. End-point determinations were made with a protein-binding dye, sulforhodamine B (SRB). Results for each tested compound were reported as the percentage of the growth of the treated cells when compared to the untreated control cells. The percentage of the growth was evaluated spectrophotometrically versus controls not treated with test agents. […] Using absorbance measurements [time zero (Tz), control growth in the absence of drug (C), and test growth in the presence of the drug (Ti)], the percentage growth was calculated for each drug concentration. Percentage growth inhibition was calculated as:[(Ti − Tz)/[…]] × 100(1) for concentrations for which Ti ≥ Tz, [(Ti − Tz)/Tz] × 100 for concentrations for which Ti < Tz. Dose-response parameters (GI50, TGI) were calculated for each compound. Growth inhibition of 50% (GI50) was calculated from [(Ti − Tz)/(C − Tz)] × 100 = 50, which is the drug concentration resulting in a 50% lower net protein increase in the treated cells (measured by SRB staining) as compared to the net protein increase seen in the control cells. The drug concentration resulting in total growth inhibition (TGI) was calculated from Ti = Tz. Values were calculated for each of these parameters if the level of activity was reached; however, if the effect was not reached or was excessive, the value for that parameter was expressed as more or less than the maximum or minimum concentration tested. The lowest values were obtained with the most sensitive cell lines. Compounds having GI50 values ≤ 100 μM were declared to be active. The selectivity index (SI) calculated by dividing the full panel MG_MID (full-panel mean-graph midpoint) (μM) of the compounds 2h and 2i by their individual subpanel MG_MID of a cell line (μM) was considered as a measure of compounds’ selectivity. Ratios between 3 and 6 mean moderate selectivity, ratios greater than 6 indicate high selectivity toward the corresponding cell line, while compounds not meeting either of these criteria are rated nonselective.

Compound	GI50 (Homo sapiens, NCI-H322M) [µM]	CC50 (Homo sapiens, NCI-H322M, read-out: LC50) [µM]	TGI (NCI-H322M, NSCLC) [µM]	CC50 [µM]	GI50 (NCI-H322M, NSCLC) [µM]
O=C(COc1ccc(Cl)cc1/C=c1\sc2ncnn2c1=O)Nc1ccc(Cl)cc1 [Compound 2h, (Z)-2-(4-Chloro-2-((6-oxothiazolo[3,2-b][1,2,4]triazol-5(6H)-ylidene)methyl)phenoxy)-N-(4-chlorophenyl)acetamide]	13.2	51.3	25.70		
Ethyl(Z)-4-(3-(4-chloro-2-((6-oxothiazolo[3,2-b][1,2,4]triazol-5(6H)-ylidene)methyl)phenyl)propanamido)benzoate [Compound 2i]			28.84	53.7	15.1

Read-outs that look alike come from different tables or passages of the source.
